Reference: patent publication US11963941B2, “Use of a fasting mimicking diet to enhance the efficacy of antiestrogens in cancer” (UNIVERSITA' DEGLI STUDI DI GENOVA, priority 2016, dated 2024)

Tests used:
Type in all cases: cell-based
ZR-75-1 cells [1] = test: Gene expression by QPCR
ZR-75-1 cells [2] = test: Cell viability in control vs fasting mimicking (FMD) medium; conditions: FMD = low-glucose (0.5 g/L) DMEM, 1% FBS, vs regular medium, FIG. 1B
ZR-75-1 cells [3] = test: Cell cycle analysis (G1 arrest); conditions: 10 μM tamoxifen, 24 h, FIG. 2B

Row | Structure (SMILES) | TTF1 expression (ERα-mediated transcription) (ZR-75-1 cells [1]; FMD + tamoxifen 5 μM, 24 h, FIG. 4B) | RAD51 expression at the mRNA level (ZR-75-1 cells [1]; FMD + tamoxifen 5 μM, 24 h, FIG. 6A) | downregulation of cell cycle promoting genes (E2F1, E2F2 and CCNE1) (ZR-75-1 cells [1]; FMD + tamoxifen 10 μM vs single treatments, FIG. 2D) | cell viability: potentiation of drug activity by FMD conditions (ZR-75-1 cells [2]) | induction of a G1 cell cycle arrest, drug + FMD (ZR-75-1 cells [3])
1 | CC/C(=C(\c1ccccc1)c1ccc(OCCN(C)C)cc1)c1ccccc1 [tamoxifen] | increase the ability of tamoxifen to reduce TTF1 expression | strong RAD51 downregulation | more pronounced | strong potentiation | increased the ability
2 | C[C@]12CC[C@@H]3c4ccc(O)cc4C[C@@H](CCCCCCCCC[S+]([O-])CCCC(F)(F)C(F)(F)F)[C@H]3[C@@H]1CC[C@@H]2O (stereo partly drawn) [fulvestrant] |  |  |  |  | increased the ability
